Data: the RNAGym collection of RNA variant scans (doi:10.1073/pnas.2313332121)
Variants at the background level are over-represented here.

B1: TPR 5TU (parent)
chain: GGAUCUUCUCGAUCUAACAAAAAAGACAAAUCUGCCACAAAGCUUGAGAGCAUCUUCGGAUGCAGAGGCGGCAGCCUUCGGUGGCGCGAUAGCGCCAACGUUCUCAACUAUGACACGCAAAACGCGUGCUCCGUUGAAUGGAGUUUAUCAUG

Variants of: B1
Assay: polymerase ribozyme fitness, log enrichment relative to wild type (log ratio); higher = more active; in vitro selection for triplet polymerase activity
Method in brief: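 In triplicate, a single round of in vitro selection was run on each mutant library, PCR-built and transcribed, covering one subunit of a heterodimeric triplet polymerase ribozyme. Frozen incubation at −7 °C followed annealing with a biotinylated primer, partner subunit and triplets, and extended constructs were then gel-excised, streptavidin-captured and taken through RT-PCR. Fitness is the logarithm of genotype enrichment over wild-type enrichment, from inverse-variance-weighted replicate averages of Illumina-sequenced inputs and outputs. […] only genotypes with ≥10 input reads and ≥1 read per output were kept.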

Variant	polymerase ribozyme fitness (log ratio)
U6A C76G C87G C93G A137U	≤ -4.2
C5G A89G C96U U135G	≤ -4.2
C5G G50A U61G G62A A66C C96A U146A	≤ -4.2
C5U A24G A49G G58A A60G C93A C125A U144A	≤ -4.2
C5G C35G C85A	≤ -4.2
C5G G50A A52G C76A C114G	≤ -4.2
C5G C93G	-2.51
C5G C93U	-2.31
U6A G50C C57A G83U C87A G94A	≤ -4.2
C5U C85G	-1.7
C5G G74A U77G	≤ -4.2
C5U A20C C43G C76G C108G C114U A120U U146G	≤ -4.2
C5U C96U	0.36
C5U C96A	0.48
C5U U6G C8U C54U U61A C96U A121C G133U	≤ -4.2
C5U G50A C54A C76U G84U C95U C114U	≤ -4.2
U6A G42C C123A	≤ -4.2
C5U U31C C38U U44G A47C C85U U139C	≤ -4.2
C5U A16C C51U	-1.73
C5U C27G A29G G71U U77G C85A G88U	≤ -4.2
U6A A49C A107U	≤ -4.2

Variant	polymerase ribozyme fitness (log ratio)
U6A C14A C35U C87A C116U A138G	≤ -4.2
C5G A52C G58A C93A C118U	-3.09
U6A U7A C14G A41G G86C	≤ -4.2
U6A C54A C93G	≤ -4.2
C5G A41C G46C C57G A60U G68C U135A G141A	≤ -4.2
C5G U144C A150C	≤ -4.2
C5U U82A C103G A113U A137C U148A	≤ -4.2
C5G C35U C75U G86C A113U A142G	≤ -4.2
C5G G25C A29C U53C G70C C96U G133A	≤ -4.2
C5U U9G A12C U33G G58A G88A A91G G94A A113C A121C	≤ -4.2
C5U A28U G48A G70C C85U U139C	≤ -4.2
C5U C10G U45A G58A G67A U135A	≤ -4.2
C5G A60C U61A C85A G86U U148A	≤ -4.2
C5U U9C C87G U101G C105U A107G C118G U148G	≤ -4.2
U6A G25U A29U C54A C87A A120G	≤ -4.2
C5G U9G G86A	-4
C5G A49G U61A C85G	≤ -4.2
C5G U6G G59A G68A U77A G88C C95G	≤ -4.2
C5G U31C C85G U102G A137U	≤ -4.2
C5G U13A A29G C51U G94C C114G G140C G141C U144A	≤ -4.2
U6A A26C G59A G67A C69A G80C G81C G84U U134G U144C	≤ -4.2

Variant	polymerase ribozyme fitness (log ratio)
C5G A110C	≤ -4.2
C5G U7G A12C A22U U90C U144A	≤ -4.2
U6A A37G G80A C87A U102G	≤ -4.2
C5G G50U G74A C76G G83C C95G C96U A142C	≤ -4.2
C5G U7A C93U A106C	-3.03
C5G C14U G68U G84A U151G	≤ -4.2
C5G C10G C54U C85A C93U C96G A98G	≤ -4.2
C5U C8G A21U C87A C125A	≤ -4.2
C5U A60C G62U A91U C103G	≤ -4.2
U6A U53A G80C A106C C125U	≤ -4.2
U6A G84U G92C C99U	≤ -4.2
U6A A12G A17C A52C U56A U77A C85U G124C G126A G143C	≤ -4.2
C5G C57G A66C C85U C118U A138U	≤ -4.2
C5U C38G A66U G94C	≤ -4.2
C5G G50A G58C G84C C108U	≤ -4.2
C5U A12U A17C G50U G80C C93A C99A C125A	≤ -4.2
U6A G42A G50C C93U	≤ -4.2
C5G C8A C27U A49C U56A G94A C95G U109G	≤ -4.2
U6A A16C A20G G62C A91U A110U	≤ -4.2
U6A G50C A52C	≤ -4.2
C5G C43U G81A A91U	≤ -4.2

Variant	polymerase ribozyme fitness (log ratio)
C5U U7G A17U A52G C57A G140U	≤ -4.2
U6A C27A G62A A66U C69U C93G	≤ -4.2
C5G U13A	-1.14
C5U C8G U9G U61G U77A G84A U146C	≤ -4.2
U6A U31C A60U C87A G140C	≤ -4.2
C5G C85A C116A	0.0205
C5G C57A A60C U90G C96A G126A G141C	≤ -4.2
C5U A37U C69U C95U	-1.02
C5U G50U C85U U90G C95U C96G U139G	≤ -4.2
C5G C27U C38G G81A U104C A115C	≤ -4.2
C5G C10G C54U C57U G58A A91C	≤ -4.2
U6A U15G A16U G74A U82G C95U	≤ -4.2
C5U A17C U82A G86U G94U U148A	≤ -4.2
U6A C57A G68C G94C A110G A113U	≤ -4.2
C5G A73U G84U C85A A150C	≤ -4.2
U6A A30C G58C A60U C76G A106U C149G	≤ -4.2
U6A A16U A29U A39G C57G A66C C85G A91U	≤ -4.2
C5U A142U	-0.885
C5G U53G C54A C96U U135A	-3.79
C5G G25C A39U U53A	≤ -4.2
